Assay results: the supplement of paper PMC3334620
Over roughly 33,000 sequences, “E-score (-0.5 to 0.5)” has its median near -0.016; the highest 2% begin near 0.31. This is one part of the list.

Biological target: Cst6 (UniProt P40535)
Assay: PBM E-score (8-mer binding enrichment) (E-score (-0.5 to 0.5)); higher = stronger / more preferred TF binding; most listed sequences are background and not binding sites
Conditions: protein concentration: 200 nM; construct: GST-DNA-binding domain
Procedure, shortened: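 Universal all-10-mer Agilent arrays, double-stranded by primer extension on fresh or once-stripped slides, were probed with about 100-200 nM GST-tagged yeast transcription factors made by PURExpress. Fluorescent anti-GST detected bound protein, and masliner normalised the scans. E-scores from the Universal PBM Analysis Suite were given to each ungapped eight-base word pooled with its reverse complement.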

Sequence	PBM E-score
CCGATGTC	-0.0711
CAGCTAAC	-0.19
TACGTTAA	0.189
AGAATCTC	-0.0515
CGTACCCA	0.0246
GCTCATTA	0.0545
ATTACGGC	0.266
GTTGGAAA	0.0394
CATTTGCG	0.258
AGTGCGAA	-0.154
CTAGCCAA	0.0159
AATACTCT	0.0681
ATCCCTCA	0.0332
ACGTCCAG	-0.229
AGAAGACT	-0.23
ATAATTTA	0.304
CAGAGTTA	0.207
CGACCGTA	-0.236
ACGATTGA	0.125
CCACCCGA	-0.0893
GGGTTCCA	-0.312
ACTGCAGG	-0.194
GAGCCCTC	-0.323
GTGCTATA	0.0846
CTTCAAGC	-0.0666

Sequence	PBM E-score
AGGCATAT	0.182
ATAGGAAC	-0.0415
GGTATACA	-0.0479
CCGGCCCG	-0.238
AAACAGAG	0.123
ATACCTTG	-0.0121
AAATCTAT	0.213
GCCCATAC	-0.0375
TGGCGGAA	-0.201
TCCCCCAA	-0.29
ACCGGAAA	-0.0603
GGATTTAA	0.119
CTGTGATC	-0.00162
CAGAGCAA	-0.0363
CCGGAACC	-0.247
CATGACTC	0.0297
CTGGTGCA	-0.129
GATTATAC	0.112
AAGCCAGG	-0.174
ATCCCCGC	-0.166
CTACTCGC	-0.103
TGCTGCAA	0.159
CCGACCAG	-0.184
ATAGGTGA	0.157
AACCTTGA	0.138

Sequence	PBM E-score
CGCCGGAA	-0.127
ACCGGCCT	-0.168
CTGTCCCC	-0.408
GACACCAA	0.0823
ATAATCTA	0.0831
GGCGTCCC	-0.225
CGCCCTAA	-0.163
CAGCCAGC	-0.246
ATAAGACC	-0.135
ACCGCGCC	0.0276
AGTGAACC	-0.0808
CACGAAAG	0.0816
GTCTTAAA	-0.118
CATACGTC	0.405
GACTGTCA	-0.0389
CAAGGGAA	-0.137
CTTTAATC	0.0364
CAGAAGTC	-0.0882
TATAGCAA	0.0214
CATGATAG	0.0616
CAAAGCGA	-0.0448
CCTTGCTC	-0.266
CGAACTTC	0.0142
AATTCGTG	0.111
ATGCACAC	0.053

Sequence	PBM E-score
AGATTAAT	0.086
CCCACGGA	-0.182
AAGGGTGT	-0.0767
ATGGTACG	0.103
GGTCTCAC	-0.0997
AATACGGA	0.14
GGCGCCTA	0.244
CTTTGTTC	0.126
AACGAGAG	0.0905
TAGAGCTA	-0.122
CAGATTAA	0.175
AACCGTAA	0.0115
GTCTGAAA	0.101
ACCCCAGA	-0.104
AGCTGCCG	0.0192
AGACCCAG	-0.143
GTCTACAA	-0.054
ACCCGCCA	-0.194
CTCGGACC	-0.18
GAATAATC	0.197
AAGGACGG	-0.251
ACAAGCAA	0.0476
CCGTTCCG	0.145
CGATGTAC	0.0211
CTAAGCGC	-0.179

Sequence	PBM E-score
CAGCCTGC	-0.179
CGTTCCAA	0.104
TAAGAAAA	0.221
GTTGAACA	-0.153
GGTCCCCA	-0.319
AGCCCTCA	-0.235
GCCCGTAC	-0.12
CCACAAAC	0.0274
CTCAAAAA	0.126
AAACTAGG	-0.0649
TTCGGCAA	0.00074
CAGATGCG	-0.149
GTTTCATA	-0.0397
CGCAACGA	0.0974
ATTTCAGA	0.0576
AACTTCGG	-0.0393
CCTAGTGA	-0.042
ATTCAGAC	0.0865
CTAAAGGC	0.0355
CGTTTTTA	0.118
GGGCATAC	-0.197
CTCTGTCA	0.0734
ACTCGACA	-0.0355
CTTTATAA	0.204
ACTGGTAT	-0.0791

Sequence	PBM E-score
ACCGGGTC	-0.147
CTACGATC	-0.0293
CGGCGTAG	0.11
ACATTTAC	0.168
ACAATTGC	0.0557
ACGCTCAT	0.114
CGCTACGC	-0.207
AAAGGGAC	-0.094
ATTTCGGG	0.0105
GGTCTGCA	-0.177
CACCTGGA	-0.135
TCTTGTAA	0.272
CTCGGTTA	0.0295
ACGGAAGG	-0.191
AACATAAC	0.204
CCGATTAG	-0.0995
ATCCTGGG	-0.125
CCATTTAG	-0.0974
GGGCGCCA	0.071
CCACCCTA	-0.145
CCATTTCG	-0.158
GACTCGGA	-0.236
GGTCTGAC	0.028
CTGTCCAA	-0.0724
CTTACTTC	0.204

Sequence	PBM E-score
CGAAAGTA	-0.108
GCAGCTGC	-0.0192
TCGGCGCA	0.071
AAAAACCC	-0.0383
CTAGTGTA	0.00066
GATGCTCC	-0.26
CCTACGAG	-0.169
CCTAGAGA	-0.232
AGATGCTG	-0.178
GCGTGCCC	-0.283
GAAAGGTA	0.0556
CTATCAAA	-0.039
CTCCGGGC	-0.207
CCCCGAGC	-0.153
TCAAGCCA	-0.0234
TATAAGGA	0.168
TAAGTAGA	0.144
CACCTAAG	0.108
GATAGACC	-0.0997
ATAAAAAC	0.28
CACCAGGC	-0.22
CAGTTTGC	0.0163
CATAAAGG	0.00565
CCTCCTAA	-0.114
CAGTCTCC	-0.163

Sequence	PBM E-score
ATTGAGCC	0.197
CCGGTGCA	-0.272
AGCTGTAA	0.0976
CCGGCAGG	-0.104
CCTTTGAG	-0.167
CTCATATC	-0.0325
TATGGTCA	0.0429
ATGATGCC	0.347
ATTCACGC	0.0513
GACTACGA	-0.135
GAAGCCCA	-0.316
GATGTACC	0.14
AACCGGGC	-0.226
AGTTATGG	0.0629
CCCTTCAG	-0.258
ATCTCAGA	-0.0422
CACCGATA	-0.0251
AAATCACC	0.197
GCACAGGA	-0.161
GTCAAAGA	0.0985
AATCCGCT	-0.0893
AACTTGAA	0.127
CTTTCTGA	0.192
CGGCGTGA	0.139
CCTACCAA	0.0973

Sequence	PBM E-score
AGGGTGCA	-0.232
CCCTGCGA	-0.115
CGTCGCAA	0.0553
CGTCGGCA	-0.135
CAGCTCAA	-0.0577
ATTTGGCC	0.0141
AACGCCTT	0.0459
ATCATAAT	0.291
CGGCGTTA	0.244
CTCGGTTC	-0.254
AAGTATTC	0.103
AGAGTGCT	0.00594
TACGTAGA	0.224
ACAGCTCA	-0.0394
CATTCCGC	-0.0695
ATAGACAG	0.0164
GGATATAC	0.0302
ACGGGCGC	-0.129
AATTAACT	0.17
AAGCGTAT	0.00964
AAGCGCTA	0.0622
CAGCCTAC	-0.183
CGCGGGCA	0.00078
CCTCGCCG	-0.332
CTCTACGC	-0.109

Sequence	PBM E-score
GCCCCTAA	-0.317
AGCACGTA	-0.0004
CAGTGTGG	-0.119
CAAACTGC	0.0914
ACGCGTAC	0.0978
GATACGCC	-0.1
CGCATTAG	-0.0836
CTTACGAC	-0.0377
AAAGTCAG	0.0101
AAAACAAG	0.0655
CGTGCGAG	0.0367
ATAGGTTG	-0.053
ACCACGCT	-0.118
GAGAGTAA	0.104
ACAATGTA	0.117
TCACATAA	0.237
ATCGTTAC	0.0267
GCCCGAGC	-0.18
ATAAAATC	0.151
ACGAGGTG	-0.0315
AGTCACTA	0.209
GCCCGTTA	-0.235
CCCCCATA	-0.336
CAAGATGC	0.0767
ATATGCTG	-0.053

Sequence	PBM E-score
GCAATACA	0.214
CAAGTATC	-0.0576
ACATCGCA	-0.115
GCTTCGTA	-0.222
CATCAGGC	0.124
AGCCTCTC	-0.316
CCACACCG	0.017
CAGCAGCG	-0.0773
CCTGCGAC	-0.317
AATGCAGT	-0.0148
CCATGTGC	-0.00378
AGCCAGGG	-0.248
ACTGGATG	-0.144
GACCCCAA	-0.206
ATGAGGGA	-0.0325
AGATGTTG	-0.138
AGTTTAAA	0.224
AGGTCGGG	-0.171
GCAGAAGC	-0.0357
GACGCTCA	0.0748
ACAGTTAT	-0.0188
AGCTAGCA	-0.097
ACTGGACC	-0.0967
GAATGTGC	0.07
ATCATGAA	0.17

Sequence	PBM E-score
CAGCGCAA	-0.0337
AAGACATG	0.113
GGCCCAAA	-0.2
CGGGCCAG	-0.158
CTTGGGGC	-0.0223
CGTAAGCA	0.178
CAGTCCAG	-0.315
AGATAAAC	0.0985
AGACTCCT	-0.157
ATCTAGGC	-0.253
TCACGAAA	0.18
CGCCGGCC	-0.168
ACGCTTCG	-0.0355
CACTCCAC	-0.0301
AGACTCCC	-0.342
TGCCTCAA	-0.0378
ACCGCGGC	0.164
CAACCTGC	-0.0302
ACTACCGC	-0.0306
AAGGCTCG	-0.202
CCCTTCGG	-0.0367
CTCTCCAC	-0.308
ACGTTTCT	-0.0531
GCGAATGA	0.263
AATCCAAC	-0.118

Sequence	PBM E-score
ACGACCCT	-0.238
CACCTCTG	-0.172
AGGTGGTA	-0.0325
CCTATTAC	0.147
CGCGATCA	0.0196
AAGCAAAG	-0.0626
AGATGCCC	-0.166
CTGTGTCA	0.0935
GCAGTAGA	-0.0865
ACTTTCTG	0.0842
CGACGAAC	-0.0573
CGCTTATA	0.245
CGTCTTTC	-0.0618
AGAGTTGC	-0.2
GGAAACAC	0.0622
ACGTGGCT	0.0489
GCAAGGCA	0.16
CTCGATTA	0.17
CGGGCGTC	-0.0942
CGGAGAGC	-0.0924
AGCTAAAT	0.0716
ATATGGCC	-0.144
GAAAACTA	0.0568
CAAGGGTA	-0.223
CGATTGTA	0.0905

Sequence	PBM E-score
ATTGCCTC	0.144
AACACACG	0.0436
TGCACCAA	-0.0568
TATGTTCA	0.0647
AGGCTGCC	-0.276
CATACACC	-0.0592
AACGTTGA	0.16
GCTCCCAA	-0.219
AAACGTGA	0.137
AGCAGTTG	-0.162
GCCGCAGA	0.136
CATTTCAG	0.0441
GCTCGCCA	-0.255
ACTGGTAA	0.107
CACAGGCG	-0.0418
AAGCCAAT	-0.00288
TAACAAAA	0.353
TCGTTGCA	0.00185
GGCCACAC	-0.159
